Experimental data reported in PubChem BioAssay AID360 (National Center for Advancing Translational Sciences (NCATS), 2006).
Out of some 48,000 compounds screened, about 550 (1.1%) were called active. Another 4% or so got no clear call; they are omitted. Cut-off read from the data, not from the text of the source: active = potency below about 15 µM; inconclusive = mostly about 16 µM to 33 µM; inactive = weaker than that. The list shows a part of the results.

Biological target: Lysosomal acid glucosylceramidase (Homo sapiens) (UniProt P04062)
Sequence of UniProt P04062 (P04062 whole entry, looked up): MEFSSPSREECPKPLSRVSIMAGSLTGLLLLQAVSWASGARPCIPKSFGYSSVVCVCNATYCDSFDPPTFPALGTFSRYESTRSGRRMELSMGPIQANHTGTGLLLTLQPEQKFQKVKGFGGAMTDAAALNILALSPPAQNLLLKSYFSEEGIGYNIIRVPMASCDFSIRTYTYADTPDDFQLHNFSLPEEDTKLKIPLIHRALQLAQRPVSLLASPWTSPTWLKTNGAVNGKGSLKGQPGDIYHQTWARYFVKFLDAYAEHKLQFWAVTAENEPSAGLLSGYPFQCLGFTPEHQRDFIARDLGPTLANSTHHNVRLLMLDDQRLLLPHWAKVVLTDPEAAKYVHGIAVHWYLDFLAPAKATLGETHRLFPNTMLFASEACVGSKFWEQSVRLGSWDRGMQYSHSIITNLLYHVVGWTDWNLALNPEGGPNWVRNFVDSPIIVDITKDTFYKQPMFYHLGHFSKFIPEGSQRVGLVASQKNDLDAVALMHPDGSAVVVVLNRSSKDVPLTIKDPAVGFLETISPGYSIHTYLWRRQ
Test: Glucocerebrosidase;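 note: the screen sought inhibitors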
Settings: purified enzyme, resorufin glucoside fluorescence (screen aimed at inhibitors), 20 min
In short: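 Wild-type enzyme at 0.2 nM final in 50mM citric acid/KH2PO4, 10mM sodium taurocholate, 0.01% tween-20, pH 5.9, with resorufin beta-D-glucopyranoside at 30 uM final. Compounds titrated, 20 min at RT, red fluorescence read; AC50 from titration.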
Potency is the fitted concentration of half-maximal effect.

Compound	Potency
Cn1c(=O)c2nncnc2n(C)c1=O	inactive: > 76.9 µM
COc1ccc(CC2C(=O)N(C)C(=O)N(C)C2=O)c(OC)c1	inactive: > 76.9 µM
OCCN(CC#CC(O)(c1ccccc1)C1CCCC1)CCO (stereo unspecified)	inactive: > 76.9 µM
Cc1ccc(C2(O)CC(C)N(C)CC2C)cc1 (stereo unspecified)	inactive: > 76.9 µM
CCOC(=O)c1c(C)n(Cc2ccccc2)c2ccc(OCC(O)CN3C(=O)CNC3=O)cc12 (stereo unspecified)	inactive: > 76.9 µM
CC(=NCC1CCCO1)c1c(O)n(-c2ccccc2)c(=O)[nH]c1=O (stereo unspecified)	inactive: > 76.9 µM
CCOC(=O)N(c1ccccc1)P1(=S)OCC(C)O1 (stereo unspecified)	inactive: > 76.9 µM
CCC1=C(C)C(N2CCOCC2)=NP(N2CCOCC2)(N2CCOCC2)=N1	inactive: > 76.9 µM
CC(NC(=O)Oc1ccccc1)C(c1cccs1)N1CCOCC1 (stereo unspecified)	inactive: > 76.9 µM
CN(C)P(=O)(C(Cl)=C(N1CCCCC1)N1CCCCC1)N(C)C	inactive: > 76.9 µM
CCn1c(O)c(C=NCc2cccs2)c(=O)[nH]c1=O	inactive: > 76.9 µM
O=c1[nH]c(=O)n(-c2cccc(Cl)c2)c(O)c1C=NCCCN1CCOCC1	inactive: > 76.9 µM
CCOC(=O)c1ccc(NC(=O)c2c(O)[nH]c(=O)[nH]c2=O)cc1	inactive: > 76.9 µM
CN1C2C=C(N(C(=O)c3ccc(Cl)cc3)c3ccccc3)CC1CC2 (stereo unspecified)	inactive: > 76.9 µM
COc1ccc(CC2c3cc(OC)c(OC)cc3CCN2C)cc1OC (stereo unspecified)	inactive: > 76.9 µM
COCc1cc(C2SCC(=O)Nc3c2c(=O)[nH]n3C(C)C)ccc1OC (stereo unspecified)	inactive: > 76.9 µM
CCOC(=O)c1cccc([P+](=O)O)c1	inactive: > 76.9 µM
C=CCn1c(O)c(C(C)=Nc2ccc(NC(C)=O)cc2)c(=O)[nH]c1=O	inactive: > 76.9 µM
CCC(=NCC1CCCO1)c1c(O)n(Cc2ccccc2)c(=O)[nH]c1=O (stereo unspecified)	inactive: > 76.9 µM
CC(=NCC1CCCO1)c1c(O)n(-c2ccc(Cl)cc2)c(=O)[nH]c1=O (stereo unspecified)	inactive: > 76.9 µM
COc1ccc(CCn2c(O)c(C=NC3CC3)c(=O)[nH]c2=O)cc1OC	inactive: > 76.9 µM
CC(=O)NC1CC2CCC(C1)N2 (stereo unspecified)	inactive: > 76.9 µM
Cn1ccnc1P(=S)(c1nccn1C)N1CCOCC1	inactive: > 76.9 µM

Compound	Potency
Cc1ccc(-c2nc(CS(=O)CC(=O)N3CCC4(CC3)OCCO4)c(C)o2)cc1 (stereo unspecified)	inactive: > 76.9 µM
CCOC(=O)C1=C(N)Oc2c(c(=O)oc3ccccc23)C12C(=O)N(C)c1ccccc12 (stereo unspecified)	inactive: > 76.9 µM
COc1cc2c(C(=O)N3CCN(C)CC3)c(C)n(C)c2cc1Br	inactive: > 76.9 µM
Cc1ccc(Cn2nnnc2CN2CCC(n3nnc4cc(C)ccc43)CC2)cc1	inactive: > 76.9 µM
CCC(=O)OC1(c2cccc(C)c2)CC(C)N(C)CC1C (stereo unspecified)	inactive: > 76.9 µM
CCOC(=O)c1c(N)n(CCCOC(=O)c2ccco2)c2nc3ccccc3nc12	inactive: > 76.9 µM
CCn1c(=O)cc(SCC(=O)N2CCC3(CC2)OCCO3)c2ccccc21	inactive: > 76.9 µM
Cc1cccc(NC2=NCCCS2)c1C	inactive: > 76.9 µM
Cn1nc(N)c2c1N=P(N1CCOCC1)(N1CCOCC1)N=C2c1ccccc1	inactive: > 76.9 µM
COC(=O)C(O)(c1ccc2c(c1)CCCN2)C(F)(F)F (stereo unspecified)	inactive: > 76.9 µM
Cc1ccc2nc3c(cc2c1)CC1(C(=O)N(C)C(=O)N(C)C1=O)C1CCCCN31 (stereo unspecified)	inactive: > 76.9 µM
Cc1ccc(C2(O)CCN3CCCCC32)cc1 (stereo unspecified)	inactive: > 76.9 µM
COC(=O)C(O)(c1cn(C)c2ccccc12)C(F)(F)F (stereo unspecified)	inactive: > 76.9 µM
O=C1C2CCCN2C(c2cccnc2)N1c1ccc(Cl)c(Cl)c1 (stereo unspecified)	inactive: > 76.9 µM
CC1(C)C(C(=O)NCc2ccco2)C1(C)C	inactive: > 76.9 µM
CN(C)CC#CCOCCOCCC#N	inactive: > 76.9 µM
Cn1c(C(=O)O)c(CC(=O)N2CCN(Cc3ccccc3)CC2)c2ccccc21	inactive: > 76.9 µM
Cc1ccc(Cl)cc1-n1c(O)c(C=NCCCN2CCOCC2)c(=O)[nH]c1=O	inactive: > 76.9 µM
CCCC1(CCC)C(=O)NC(=NCc2ccccc2)NC1=O	inactive: > 76.9 µM
C=CCn1c(O)c(C(CC)=NCc2cc(OC)cc(OC)c2)c(=O)[nH]c1=O	inactive: > 76.9 µM
Cc1cc(C(=O)N2CCC3(CC2)OCCO3)cs1	inactive: > 76.9 µM
COc1ccc(OC)c(CC(=O)O)c1	inactive: > 76.9 µM
O=C(CCCCCn1c(=S)[nH]c2ccccc2c1=O)N1CCC2(CC1)OCCO2	inactive: > 76.9 µM

Compound	Potency
COc1ccc(-c2nc(CS(=O)CC(=O)N3CCC4(CC3)OCCO4)c(C)o2)cc1 (stereo unspecified)	inactive: > 76.9 µM
CCCCn1c(O)c(C(CC)=NCc2ccc3c(c2)OCO3)c(=O)[nH]c1=O	inactive: > 76.9 µM
COc1ccc(CN2CCN(Cc3ccccc3)CC2)c(OC)c1	inactive: > 76.9 µM
CCOC(=O)CC1=C(C(=O)OCC)C2(C(=O)N1)C(C(=O)OC)=C(N)Oc1ccccc12 (stereo unspecified)	inactive: > 76.9 µM
CCN(CC)CCN=Cc1c(O)n(CCC2=CCCCC2)c(=O)[nH]c1=O	inactive: > 76.9 µM
C=Cn1ccnc1P(=S)(c1ccc(N(C)C)cc1)c1nccn1C=C	inactive: > 76.9 µM
CC1CN=C(NCc2ccncc2)S1 (stereo unspecified)	inactive: > 76.9 µM
CCOC(=O)c1ccc(N2C(=O)CC(N3CC=C(c4ccc(F)cc4)CC3)C2=O)cc1 (stereo unspecified)	inactive: > 76.9 µM
O=c1[nH]c(=O)n(Cc2ccc(F)cc2)c(O)c1C=NCC1CCCO1 (stereo unspecified)	inactive: > 76.9 µM
Fc1ccc2c(c1)nnn2C1CCN(Cc2ccccc2)CC1	inactive: > 76.9 µM
CCC(=NCc1ccco1)c1c(O)n(Cc2ccccc2)c(=O)[nH]c1=O	inactive: > 76.9 µM
CN(C)c1nc(OCCNC(=O)COc2ccc(Cl)cc2Cl)nc(N2CCCCC2)n1	inactive: > 76.9 µM
COc1ccc(OCC(=O)N2CCN(CC3CC4C=CC3C4)CC2)cc1 (stereo unspecified)	inactive: > 76.9 µM
CN1CCC(O)(c2ccccc2)C2CCCC21 (stereo unspecified)	inactive: > 76.9 µM
CCC(C)(C)n1nnnc1C(c1cccs1)N1CC=C(c2ccc(F)cc2)CC1 (stereo unspecified)	inactive: > 76.9 µM
Cc1nc2ccccc2c(=O)n1-c1cccnc1	inactive: > 76.9 µM
O=C1NC(=O)C(Cc2cccs2)C(=O)N1	inactive: > 76.9 µM
CCOC(=O)C1=C(C)OC(N)=C(C(=O)OC)C12C(=O)Nc1ccc(Br)cc12 (stereo unspecified)	inactive: > 76.9 µM
CC12CN3CC(C)(CN(C1)C31CCSCC1)C2=O	inactive: > 76.9 µM
CC12CN3CC(C)(CN(C1)C3c1cccs1)C2 (stereo unspecified)	inactive: > 76.9 µM
O=c1c2ccccc2nc(CN2CCCCCC2)n1-c1ccc(F)cc1	inactive: > 76.9 µM
CC(C)NS(=O)(=O)c1ccc(OCC(=O)N2CCN(Cc3ccccc3)CC2)c(Cl)c1	inactive
CCOC(=O)c1c(C)n(Cc2ccco2)c2ccc(O)cc12	inactive: > 76.9 µM

Compound	Potency
CN1CCN(C(=O)OC2c3nccnc3C(=O)N2c2ccc(Cl)cn2)CC1 (stereo unspecified)	inactive: > 76.9 µM
O=C(O)C1(c2ccc(Cl)cc2)CCC1	inactive: > 76.9 µM
FC(F)(F)c1ccc2c(c1)ncn2C1CCN(Cc2nnnn2C2CCCCC2)CC1	inactive: > 76.9 µM
O=C(Nc1cccc(Cl)c1)c1c(O)c2c(n(Cc3ccco3)c1=O)CCCC2	inactive: > 76.9 µM
Cc1ccccc1CS(=O)(=O)Cc1ccc(C(=O)N2CCC3(CC2)OCCO3)o1	inactive: > 76.9 µM
c1ccc2c(NC3=NCCS3)cccc2c1	inactive: > 76.9 µM
O=C(Nc1ccc2c(c1)OCO2)c1cn(Cc2ccc(F)cc2)nn1	inactive: > 76.9 µM
Cc1cccc(C)c1NC1=NCCCS1	inactive: > 76.9 µM
O=C(CN1C(=O)CN=C(c2ccccc2)c2ccccc21)NCc1ccco1	inactive: > 76.9 µM
CCCNS(=O)(=O)c1ccc(OCC(=O)N2CCN(Cc3ccc4c(c3)OCO4)CC2)cc1	inactive: > 76.9 µM
O=S1(=O)CC2(N3CCOCC3)CCCCCCC21 (stereo unspecified)	inactive: > 76.9 µM
C=CCn1c(O)c(C(C)=Nc2cc(OC)ccc2OC)c(=O)[nH]c1=O	inactive: > 76.9 µM
COC(=O)c1ccccc1-n1c(C)nc2ccccc2c1=O	inactive: > 76.9 µM
O=c1cccc2n1CC1CC2CN(Cc2c(Cl)cccc2Cl)C1 (stereo unspecified)	inactive: > 76.9 µM
COc1ccccc1CN1CCN(C(=O)COc2ccccc2)CC1	inactive: > 76.9 µM
CSC1=NP(=S)(SC)N(C)c2nc3n(c21)CCC3 (stereo unspecified)	inactive: > 76.9 µM
CC(=NCCN1CCCCC1)c1c(O)[nH]c(=O)[nH]c1=O	inactive: > 76.9 µM
COc1cc(OC)c(OC)cc1CNCCc1ccc(OC)c(OC)c1	inactive: > 76.9 µM
CCCOc1ccccc1C1SCC(=O)Nc2c1c(=O)[nH]n2C(C)CCC (stereo unspecified)	inactive: > 76.9 µM
CC(=NCc1cccnc1)c1c(O)n(-c2ccc(C)cc2)c(=O)[nH]c1=O	inactive: > 76.9 µM
COc1ccc2c(c1OC)C(=O)OC2c1c(O)n(Cc2ccc(F)cc2)c(=O)[nH]c1=O (stereo unspecified)	inactive: > 76.9 µM
O=c1[nH]c(=O)n(Cc2ccc(F)cc2)c(O)c1C=NCCN1CCCCC1	inactive: > 76.9 µM
